From the supplement of paper PMC10338343
± gives the standard deviation. Only a part is listed here, and it is no random draw.

These sequences were tested on MIWI (PIWIL1) piRISC loaded with piRNA #1 (30 nt) (assay: pre-steady-state target cleavage rate (min^-1); MIWI and MILI are mouse PIWI proteins and EfPiwi is from a freshwater sponge; tags in brackets are library labels; higher = faster piRNA-guided slicing of the target). Conditions: guide: piRNA #1 5'p-UGAGGUAGUAGGUUGUAUAGUAUCCAGAGG; auxiliary factor: 500 nM mouse GTSF1.
Summary of the method: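 The method was Cleave-'n-Seq, in which uncleaved targets from a transcribed, DNA-blocked target RNA library were sequenced after exposure to active affinity-purified piRISC carrying one synthetic guide, with or without GTSF1 partner protein. Reactions contained 0.1 nM library, 1 nM piRISC and, where present, 500 nM GTSF1 in HEPES–potassium acetate buffer at 33 °C for 0–8 or 0–960 min. Reads were normalised to depth and to weakly complementary targets, three trials were pooled, and k3 was capped at 0.0001 min^-1. The pre-steady-state cleavage rate came from a burst-and-steady-state fit.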

Going from GGAGACCAUACUUUACAAGCUACUACCUCA to GGAGUGGUUACUAUUCAACCUACUACCUCA, the “pre-steady-state target cleavage rate” value rises from 0.724 ± 0.05 to 1.55 ± 0.11.

Compared with GGAGACCAAACUAUACAACCAACUACCUCA, GGAGUGGAAACUAAACAACCUACUACCUCA is higher in “pre-steady-state target cleavage rate” value: 0.0131 ± 0.0057 for the first, 1.14 ± 0.082 for the second.

Compared with GGAGACCUAACUAUACAACCUACUACCGUCA, GGAGACCUAUCUAUUCAACCUACUACCUCA is lower in “pre-steady-state target cleavage rate” value: 0.718 ± 0.053 for the first, 0.471 ± 0.054 for the second.

Compared with CGUCUGGAUACUAUACAACCUUCUACCUCA, GGAGACCUAUCUAUACAACCUACGUACCUCA is lower in “pre-steady-state target cleavage rate” value: 0.477 ± 0.033 for the first, 0.312 ± 0.049 for the second.

First: GGUCUGGAUACUAUACCAACCUACUACCUCA
Second: GGAGACCUAACUAUUCAUCCUACUACCUCA
The “pre-steady-state target cleavage rate” value of the first is lower: 0.177 ± 0.044 for the first, 0.292 ± 0.043 for the second.

First: GGAGACGAUACUAUACAACCUACUACUCUCA
Second: CCUCUGCAUACUAUACAACCUAGUACCUCA
The “pre-steady-state target cleavage rate” value of the first is higher: 1.51 ± 0.095 for the first, 0.453 ± 0.047 for the second.

First: GGAGUGGAAACUAUACAACCUACUACGUCA
Second: GGUCUGGAUACUAUACUACCUUCUACCUCA
The “pre-steady-state target cleavage rate” value of the first is higher: 0.436 ± 0.046 for the first, 0.269 ± 0.027 for the second.

First: GGUCUGGAUACUUUACAACCUACUACCACA
Second: GCUCUGGAUACUAUACAACCUACUUCCUCA
The “pre-steady-state target cleavage rate” value of the first is lower: 0.266 ± 0.034 for the first, 0.689 ± 0.056 for the second.
